The list shows a part of the results.
T1: UNK ZnF1-6 (called full-length) (human, UniProt Q9C0B0 30-357)
T1 sequence: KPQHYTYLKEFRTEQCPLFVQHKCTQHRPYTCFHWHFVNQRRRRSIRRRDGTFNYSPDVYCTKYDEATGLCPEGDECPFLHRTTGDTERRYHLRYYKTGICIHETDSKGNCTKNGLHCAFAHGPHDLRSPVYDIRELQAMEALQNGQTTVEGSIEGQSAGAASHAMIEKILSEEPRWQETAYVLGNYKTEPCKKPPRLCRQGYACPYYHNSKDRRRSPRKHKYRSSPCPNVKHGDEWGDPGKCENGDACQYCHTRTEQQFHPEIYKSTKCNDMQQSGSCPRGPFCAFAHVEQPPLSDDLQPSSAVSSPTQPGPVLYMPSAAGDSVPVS

B1: chr5:151662744:151662768:-|3pUTR|ENSG00000113140|msi1_unk|total|mutant (ssRNA)
RNA: GGGAGUUCUACAGUCCGACGAUCGGGGCUCCCGGGACUGCCAGGCUGUUUCAGCCAGGAAGGCCAAAAUCAAGAGUGAGAUGCCGAAAGUUGUAAAACCGAAAAAGUGGAGUUGGUGAAUCGGUUGUUCUUUCCUCACAUUUGCAACAGAGGAUUGAGCAUCA
B2: chr5:41382290:41382405:-|CDS|ENSG00000182836|unk|total|mutant (ssRNA)
RNA: GGGAGUUCUACAGUCCGACGAUCGGCCAAAAAGCUCAUGCGGAAAUGGUCCGCCACUCAGACAAUGAAUUUUACUGGCCAGCCCGGAGCUGGAAUUCGUUAUUUUGAUCUUCGAAUUUCCACCAAGCCCAGAGACCCCGACAACAACAGAGGAUUGAGCAUCA
B3: chr19:7477204:7477436:-|CDS|ENSG00000104883|control|control|control (ssRNA)
RNA: GGGAGUUCUACAGUCCGACGAUCCAACGCCGUGCACUGGCUGCCCCGGGGCGUGCUGUGGGCCGGCCGCUUCCCGCCGUGGCUAGUGGGCCUCAUGGGCACCAUCUCCUCAAUCCUCAGCAUGUACCAGGCGGCCCGGGCCGGCAACAGAGGAUUGAGCAUCA
B4: ENSG00000180660:stop:overlap|stop_codon|ENSG00000180660|stop_codon|NA|stop_codon (ssRNA)
RNA: GGGAGUUCUACAGUCCGACGAUCAACAAACGUGGCGACUGGCAAGAGAGAUCCUGACCAACCCGAAAAGUUUGGAAAAACUUUAGAGGAUGAUUUAAUCAAGAGCCGAAAUUAUUACCCUUCUCAAAGUCCUUAUUAAGUGUACAACAGAGGAUUGAGCAUCA
B5: chr7:17792983:17793084:-|3pUTR|ENSG00000071189|msi1|total|mutant (ssRNA)
RNA: GGGAGUUCUACAGUCCGACGAUCGACAUGCCUCCGGUAACUGCAGAAACCGCAAAUUAAAUGAUUAAUGAGCUUAUCCGUCACCGUAAACAUACAGAUUCCUAAUUCUAUGACAGUGUACAUAUAUGAAAAUAAAUGAUGAAACAACAGAGGAUUGAGCAUCA
B6: chr4:152882748:152882856:+|CDS|ENSG00000164144|unk|total|mutant (ssRNA)
RNA: GGGAGUUCUACAGUCCGACGAUCCAGAAACUGCUGGCUAAAAAUGGAGAGACUCUUCUUGGGGCCAUUAAUUUUUUCAUUGCCCGUGUGAACACUUUGGUGAAUAAAACCAUUGAAGAUACAUUAAUGACUGUGAAACAGUAUCAACAGAGGAUUGAGCAUCA
B7: chr2:37227669:37227839:-|CDS|ENSG00000115816|unk|total|mutant (ssRNA)
RNA: GGGAGUUCUACAGUCCGACGAUCGUUUACUUUUGCUUUUUUCGGACUUGUGUCAAAAAAAAAGAUGUUGAAUCAAAAAUGCUCCGCGCCCUUUUAACAGGUGUGAACCGGGCAUACCCUUAUUCCCAGACUGGUGAUGACAAACAACAGAGGAUUGAGCAUCA
B8: chr17:79086671:79086772:+|3pUTR|ENSG00000167280|msi1|FALSE|unique (ssRNA)
RNA: GGGAGUUCUACAGUCCGACGAUCAUAGGCUGCAAGAUGCUGAUGCCGAGAAUGAUGAUUUUCUUUCCUGCAGAUGAAACUAUUAGAAAGGGUCUUAGAUUGUGGCAGGUAGGCUUUGGAGCAGGCGCCGAGACAUUUCUGAGCCAACAGAGGAUUGAGCAUCA
B9: ENSG00000056277:stop:overlap|stop_codon|ENSG00000056277|stop_codon|NA|stop_codon (ssRNA)
RNA: GGGAGUUCUACAGUCCGACGAUCUAGAGAAUGUUUCCAAAAGUACCUCAACUUCUGAACCCACUACUGGCUGCUCAUUGAAAUAGAUUCCUGCUCCAUGGAGUUCAUGCAACCUGGUGCAAGACAAGUUGGAAGUUCCUAAGUCAACAGAGGAUUGAGCAUCA
B10: chr11:65967286:65967395:+|CDS|ENSG00000175467|unk|FALSE|unique (ssRNA)
RNA: GGGAGUUCUACAGUCCGACGAUCGACCUUUAAAAAGACCAAGCGGAGGGUGAAGAAAAUCCGCAAGAAGGAGAAGGAGGUAGUAGUGCGGGCAGAUGACUUGCUGCCUCUCGGGGACCAGACUCAGGAUGGGGACUUUGGUUCCAACAGAGGAUUGAGCAUCA
B11: chr15:73560698:73560803:-|3pUTR|ENSG00000156642|msi1_unk|FALSE|overlapping (ssRNA)
RNA: GGGAGUUCUACAGUCCGACGAUCUUUUGGGCUUGAUGUGCUGUGAAUGUUGCUUUUUUUUUUCCUUUGUUAAAAUAUUUAAAUAGAAGUGAAAAGGUCCUCUGAGGAUCAGAUCAUGCAUGCGCCAUUUUUUACUUAAUGCAGCAACAGAGGAUUGAGCAUCA
B12: ENSG00000176463:stop:overlap|stop_codon|ENSG00000176463|stop_codon|NA|stop_codon (ssRNA)
RNA: GGGAGUUCUACAGUCCGACGAUCCAAAGUUUAUCUAUAACCUGGAAGACCAUGAGUGGUGUGAAAACAUGGAGUCCGUUUUAUAGUGACUAAAGGAGGGCUGAACUCUGUAUUAGUAAUCCAAGGGUCAUUUUUUUCUUAAAACAACAGAGGAUUGAGCAUCA
B13: chr10:95611293:95611394:-|CDS|ENSG00000059573|msi1|FALSE|bound_elsewhere (ssRNA)
RNA: GGGAGUUCUACAGUCCGACGAUCCCCCUCCGAAGUGAAGUCACUCCGAACUGAGUAUGGGGACCUGGAAUUAUGCAUUGAAGUAGUGGACAACGUUCAGGAUGCCAUUGACCACAUCCACAAGUAUGGCAGCUCCCACACGGACAACAGAGGAUUGAGCAUCA
B14: chr14:60713409:60714203:-|CDS|ENSG00000100625|control|control|control (ssRNA)
RNA: GGGAGUUCUACAGUCCGACGAUCUUCUGAGAGCAAAGCAACAAGUAGCUUAAUGAUGCUGGACUCUAAAUCCAAGUAUGUCUUAGAUGGCAUGGUUGAUACUGUCUGUGAAGACCUGGAAACAGACAAAAAAGAGCUUGCCAACAACAGAGGAUUGAGCAUCA
B15: ENSG00000136451:be:win_751|CDS|ENSG00000136451|bound_else_gene|NA|bound_elsewhere_windowed (ssRNA)
RNA: GGGAGUUCUACAGUCCGACGAUCGUAAAACAUGUCCAUUCAACAGAAAGACCCUUCAAAUGCCAAACGUGCACUGCUGCCUUUGCCACCAAAGACAGACUGCGGACACACAUGGUGCGCCAUGAAGGCAAGGUAUCAUGUAACCAACAGAGGAUUGAGCAUCA
B16: chr1:9729132:9729211:-|3pUTR|ENSG00000171603|msi1_unk|total|mutant (ssRNA)
RNA: GGGAGUUCUACAGUCCGACGAUCCCGUUCUGAGGACACUGGUGGCUGUGCUAUGUGUGGCCAUCCUCCAUGUCCCGUCCCUGCCGCUGCUCUGUUCCGACAGCGGACAGACGCUCACGCCCAGGGGAUGUCCUCACGCUGUCGCAACAGAGGAUUGAGCAUCA
B17: chr17:28327902:28328001:+|3pUTR|ENSG00000109084|msi1_unk|FALSE|overlapping (ssRNA)
RNA: GGGAGUUCUACAGUCCGACGAUCUCCCUGUAUCUGAAGUCUAGCAUCUCAAGGCUGAUCUGGAAGUGUGCUAGUAUGCUCCCUAGUGGAUAACUUAAUCUUUUAAUACAGUUCCGUCAUUCCCAUCUUGUUUUCAGAAGAGAACAACAGAGGAUUGAGCAUCA
B18: ENSG00000198589:be:win_3651|CDS|ENSG00000198589|bound_else_gene|NA|bound_elsewhere_windowed (ssRNA)
RNA: GGGAGUUCUACAGUCCGACGAUCCCUCACUAGAGAAACCAAAUUAAUUAAUGAUUGUCAUGGUAGUGUCUCUGAGGCUUCUUCUGAGCAAAAGAUUGCGAAGUUGGAUGUUUCCAAUGUUGCUACAGAUACUGAGAGGCUGGACAACAGAGGAUUGAGCAUCA
B19: chr20:57651677:57651767:-|3pUTR|ENSG00000124225|msi1_unk|FALSE|overlapping (ssRNA)
RNA: GGGAGUUCUACAGUCCGACGAUCGUUGAGCUGUGUCUUGAAGGCAAAAGAAAAAAAAUUUCUACAGUAGUCUUUCUUGUUUCUAGUUGAGCUGCGUGCGUGAAUGCUUAUUUUCUUUUGUUUAUGAUAAUUUCACUUAACUUUCAACAGAGGAUUGAGCAUCA
B20: chr22:20142972:20143073:+|CDS|ENSG00000099904|msi1|total|mutant (ssRNA)
RNA: GGGAGUUCUACAGUCCGACGAUCGGGGAUCAUGUGGCCCUGCAGCCCCUGCGCUCUGAGGGGGGGCCCCCCACGCCCCACCGCCGCAUUUUUGCCCCCCAUGCACUGCCCAACCGCAACGGCAGCCUGUCCUAUGACAGCCUGCAACAGAGGAUUGAGCAUCA
B21: chrX:85271413:85271529:+|CDS|ENSG00000147180|unk|FALSE|unique (ssRNA)
RNA: GGGAGUUCUACAGUCCGACGAUCUGUGAUAAAGGUUUUCAUCGUCCUUCUGAGCUCAAAAAGCAUAGUGAUAUCCAUAAGGGUAGGAAGAUUCAUCAGUGCAGGCACUGUGACUUUAAAACAUCCGAUCCAUUUAUUCUUAGUCAACAGAGGAUUGAGCAUCA
B22: chr22:40825413:40825514:-|3pUTR|ENSG00000100380|msi1|FALSE|bound_elsewhere (ssRNA)
RNA: GGGAGUUCUACAGUCCGACGAUCGGUAAUACCCACAACAACUGUAGUUUCUUACUUGGCCAAGAGAAUGCUUAUUUAAGUGUUAGACUUCCAUUCUGGCAAAAUCUUGCCUUAUCAGAAGACAUUGGAAAGAGGGAUUCCCUUCAACAGAGGAUUGAGCAUCA

The binders below were run against T1, UNK ZnF1-6 (called full-length) (assay: nsRBNS (natural sequence RNA bind-n-seq); RBNS binding buffer (assumed for nsRBNS): 25 mM Tris pH 7.5, 150 mM KCl, 3 mM MgCl2, 0.01% Triton X-100, 500 ug/ml BSA, 20 U/ml SUPERase-In, 4 C; UNK is unkempt and MSI1 is Musashi-1; names of the RNAs are library labels; protein concentration not given here; high values mean tight binding).

Binder | binding signal [enrichment R]
B1 | 0.749
B2 | 0.445
B3 | 0.86
B4 | 0.417
B5 | 0.426
B6 | 0.385
B7 | 0.438
B8 | 0.829
B9 | 0.586
B10 | 1.38
B11 | 0.991
B12 | 0.874
B13 | 0.526
B14 | 0.412
B15 | 0.476
B16 | 0.538
B17 | 1.2
B18 | 1.45
B19 | 1.22
B20 | 0.715
B21 | 0.514
B22 | 0.252

Reference: PMC12136788
